# Source: PubChem BioAssay (NCI)
# Several values for one entry are separate records, joined by “and”; a condition that tells them apart may be missing. Identical values can stand only once.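 Five compound concentrations were applied to cells in 96-well plates for 48 hours; endpoints were derived by simple linear interpolation of the resulting dose-response curve. The concentration for 50% growth inhibition is given as GI50. TGI is the concentration that stops growth completely.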
# System: NCI-H322M lung
# Assay: NCI tumour cell line growth inhibition, 48 h
Compound,TGI,GI50
COC(=O)C1CC23C=CCN4CC(C2C)C2(c5ccccc5NC12)C43 (stereo unspecified),> 100 µM,–
Cc1cc2nc(-c3c(N)ncc(C#N)c3-c3ccc(Cl)cc3)[nH]c2cc1C,> 100 µM,27.7 µM
COc1ccc(N2C(=O)C3c4[nH]c5ccccc5c4C4CCCCCCC4C3C2=O)cc1 (stereo unspecified),57 µM,–
CC1(O)CCC2(C)C(=O)C1(C)CCC21OCCO1 (stereo unspecified),> 100 µM,–
C=CCCCCn1c2ccccc2c2c(C)c3cnccc3c(C)c21,36.7 µM,–
CC[C@@]12C=CCN3CC[C@]4(c5cc(NC(=O)COc6cc(OCC(=O)Nc7cc8c(cc7OC)N(C)[C@H]7[C@@](O)(C(=O)OC)[C@H](OC(C)=O)[C@]9(CC)C=CCN%10CC[C@]87[C@@H]%109)cc7oc(-c8ccccc8)cc(=O)c67)c(OC)cc5N(C)[C@@H]4[C@](O)(C(=O)OC)[C@H]1OC(C)=O)[C@H]32,> 100 µM,4.34 µM
CCOC(=O)c1c2c(n(Cc3ccccc3)c1C)-c1nc(Cc3ccccc3)[nH]c1C(=O)C2=O,10.4 µM,3.33 µM
CS(=O)(=O)NNS(=O)(=O)c1ccc(Cl)cc1,> 100 µM,–
N#C/C(C(=O)Nc1ccccc1)=C(/N)N1CCCCC1,> 100 µM,–
N#C/C(=C1/c2cc([N+](=O)[O-])ccc2-c2c1cc([N+](=O)[O-])cc2[N+](=O)[O-])N1CCCCC1,> 100 µM,–
Cc1nc2cccc(F)c2c(=O)n1-c1nnc(C(F)(F)F)s1,> 10 µM,–
COc1cc2ncnc3c2cc1OCCCCCN(C)Cc1ccc(Br)cc1N3,22.1 µM and > 10 µM,0.125 µM and 0.138 µM
CC(=Nc1cc(Cl)cc(Cl)c1)c1ccncc1,67.6 µM,–
COc1ccccc1NC(=O)C1=C(C)NC(C)=C(C(=O)Nc2ccccc2OC)C1c1ccc(N(C)C)cc1,> 100 µM,–
CCCCN(CC)c1ncnc2ccc(Br)cc12,38.7 µM,16.1 µM
O=c1c2cc(Br)ccc2ncn1COCc1ccccc1,> 100 µM,–
Cc1nc(Nc2nc3ccccc3[nH]2)nc(Cl)c1CCCl,> 100 µM,–
Cc1c(C(=O)CC(=O)C(=O)Nc2cc(Cl)ccc2Cl)[n+](=O)c2ccccc2n1[O-],> 100 µM,–
COc1ccc(C2SCC(=O)N2NC(=O)C(C)Oc2ccc(Cl)cc2Cl)cc1 (stereo unspecified),> 100 µM,–
Cn1c2ccc(C3=NCCN3)cc2c2cc(C3=NCCN3)ccc21,> 100 µM,–
COc1cc(/C=C2\CN(C(=O)CCN3CCC(=NO)CC3)C/C(=C\c3cc(OC)c(OC)c(OC)c3)C2=O)cc(OC)c1OC,2.03 µM,0.745 µM
ClCc1ccc(C2OCCO2)cc1,44.7 µM,–
COc1cc2cc(C(=O)N3CC(CCl)c4c3cc(NC(=O)C(C)Nc3c([N+](=O)[O-])cc(C(=O)NCCN(C)C)cc3[N+](=O)[O-])c3ccccc43)[nH]c2c(OC)c1OC (stereo unspecified),0.634 µM,–

Compound,TGI,GI50
CC12CC=CCC1CCC1C2CCC2(C)C(c3ccc(=O)oc3)CCC12O (stereo unspecified),0.694 µM,0.112 µM
NC1c2c(Cl)sc(Cl)c2C(=O)C1O (stereo unspecified),> 100 µM,–
CC1(C)C=[N+]([O-])C(C)(C)N1O,> 10 µM,–
COc1cc2oc(=O)cc(C)c2c(OC)c1OC(C)=O,> 100 µM,–
CN(C)CCNC(=O)c1cc(NC(=O)c2cc(NC(=O)CC/C=C3/[C@@H]4CC[C@H]3N=N4)cn2C)cn1C,> 100 µM,–
Cc1nn(CNc2ccccc2C(F)(F)F)c(=S)n1/N=C/c1ccc(F)cc1,> 100 µM,> 100 µM
CCCCCCNC(=O)Oc1ccc(/C(=C(/C)Cc2ccc(OC)cc2)c2ccc(OCCN(C)C)cc2)cc1,9.3 µM,4.85 µM
COc1c(Sc2ccccc2)cc(Sc2ccccc2)c2cccnc12,> 100 µM,–
Cc1ccc(/C=N\NC(=O)c2ccncc2)s1,> 100 µM,–
Cn1cc(C2=C(c3cn(C)c4cc(N)ccc34)C(=O)NC2=O)c2ccccc21,> 23.5 µM,7.15 µM
COC(=O)c1ccc2c(c1)C(=O)c1c-2n(CCCN)c(=O)c2cc(OC)c(OC)cc12,37.3 µM,15.2 µM
CC(C)(C)C(=O)N1CCN(C=O)C1=S,> 100 µM,–
COc1cc2c(cc1O)CCN(C)[C@H]2Cc1ccc(Oc2c(O)c(OC)cc3c2C[C@H]2c4c(c(OC)c(OC)c(OC)c4-3)CCN2C)cc1,9.98 µM,–
COc1nc(C)cc2c(=O)n(-c3ccccc3)n(CC(O)CN3CCN(c4ccc(Cl)cc4)CC3)c(=O)c12 (stereo unspecified),> 50 µM,> 50 µM
Nn1c(Sc2nc3ccccc3c(=O)n2N)nc2ccccc2c1=O,49.7 µM,–
CC(C)(CN1CCCCC1)C(/C=C/c1ccccc1)=N\NC(=O)N/N=C(/C=C/c1ccccc1)C(C)(C)CN1CCCCC1,7.5 µM,–
COC(=O)/C=c1/c2ccccc2n2c1c1ccccc1[n+]2C,35.2 µM,–
CCN(CC)C1Oc2cc3c(cc2C(c2cc(OC)c(OC)c(OC)c2)C1C)OCO3 (stereo unspecified),> 32 µM,–
Nc1ccc2c(c1)NC(=O)[C@@H]1CCCN1C2=O,> 100 µM,–
COc1cc2c3c(c1OC)C1(C=CC(=O)C=C1)CC3NCC2 (stereo unspecified),> 100 µM,–
[N-]=[N+]=CC(=O)COC(=O)c1ccccc1,> 100 µM,–
NNS(=O)(=O)c1cc(C(=O)O)cc(C(=O)O)c1,> 100 µM,–
CC(C(=O)O)c1ccc(-c2ccccc2)c(F)c1 (stereo unspecified),> 100 µM,–

Compound,TGI,GI50
O=C1c2ccccc2C(=O)c2nn(N=P(CP(=Nn3nc4c(n3)C(=O)c3ccccc3C4=O)(c3ccccc3)c3ccccc3)(c3ccccc3)c3ccccc3)nc21,> 100 µM,–
O=c1nc2ccc3sc4ccccc4c(=O)c3n2c(=O)[nH]1,> 100 µM,–
COc1cccc(C23CCCC(C2)N(C)CC3OC(=O)c2ccccc2)c1OC (stereo unspecified),> 100 µM,–
O=P(O)(O)C=C=C1CCCCC1,> 100 µM,–
CCCCNC(=O)Oc1ccc(/C(=C(/CC)Cc2ccccc2)c2ccc(OCCN3CCCCCC3)cc2)cc1,> 100 µM,43.9 µM
NNC(=O)Cn1ccnn1,> 100 µM,–
C/C(=C(/c1ccc(O)cc1)c1ccc(Cl)cc1)c1ccccc1,2.06 µM,0.671 µM
Clc1ccc2ns[s+]c2c1,> 100 µM,–
O=c1[nH]c2cc([N+](=O)[O-])c(Nc3c4ccccc4nc4ccccc34)c([N+](=O)[O-])c2[nH]1,4.99 µM,–
CCCCCCCCCCCCCCCCCCNC(=O)OCC(CNS(=O)(=O)CCC[n+]1cccc2ccccc21)COC (stereo unspecified),20.6 µM,–
CC1CN=C(c2ccc(CN3CCC(C4CCN(Cc5ccc(C6=NCC(C)N6)cc5)CC4)CC3)cc2)N1 (stereo unspecified),69.5 µM,–
CCC1(OC(=O)CN)C(=O)OCc2c1cc1n(c2=O)Cc2cc3cc4c(cc3nc2-1)OCO4 (stereo unspecified),46.1 µM and 12.2 µM,0.122 µM and 0.117 µM
CC1=C(/C=C/C(C)=C/C=C/C(C)=C/C=C/C=C(C)/C=C/C=C(C)/C=C/C2=C(C)C(=O)C(O)CC2(C)C)C(C)(C)CC(O)C1=O (stereo unspecified),> 100 µM,–
Clc1nc2c(C#Cc3ccccc3)ncnc2n1C1CCCCO1 (stereo unspecified),30.5 µM,–
CC(=O)NC(=O)NC1=NCCC(=O)N1CCc1c[nH]c2ccccc12,> 100 µM,–
CC[C@]1(O)C[C@@H]2CN(CCc3c([nH]c4ccccc34)[C@@](C(=O)OC)(c3cc4c(cc3OC)N(C)[C@H]3[C@@](O)(C(N)=O)[C@H](O)[C@]5(CC)[C@@H]6C[C@@H]6CN6CC[C@]43[C@@H]65)C2)C1,> 33.3 µM,0.0174 µM
C/C(=N\NC(=S)N1CCN(c2ccccn2)CC1)c1nccs1,18.5 µM,–
CN1c2ccccc2S(=O)(=O)n2c(CCc3ccccc3)nnc21,> 100 µM,–
COc1cc2oc(-c3ccc4c(c3)OCO4)c(OC)c(=O)c2c(O)c1OC,> 50 µM,–
CNC(=O)N(CCC#N)CCCN(C(=O)N(C)C)c1ccccc1,> 100 µM,–
O=C(O)c1cccc(/C=C/c2ccccc2)c1,> 100 µM,–
CCN(CC)/[N+]([O-])=N/O,> 100 µM,–
COc1ccc(NC(=O)n2nc(/C=C\c3ccc(O)c(OC)c3)cc2/C=C\c2ccc(O)c(OC)c2)cc1,72.5 µM,3.87 µM
